Measurements published in PMC6919601, “Identification of Plasmodium dipeptidyl aminopeptidase allosteric inhibitors by high throughput screening” (PLoS ONE, 2019).
Where “and” joins values, the source holds several entries; their conditions need not be identical. Equal entries are not always repeated. Out of some 110,000 compounds screened, about 230 (0.21%) showed an effect of 50% or more. The list shows a part of the results.

What follows are molecules tested against DPAP1 (Plasmodium falciparum, UniProt Q8IIJ9) (assay: primary screen, percent inhibition; read by cleavage of a fluorogenic dipeptide substrate; higher = more effect of the substance).
Set-up: species or system P. falciparum D10 trophozoite lysates; single well
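Note: 30 min substrate incubation versus DMSO and 10 µM JCP410 controls.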

DPAP1, sequence (Q8IIJ9 whole entry, looked up): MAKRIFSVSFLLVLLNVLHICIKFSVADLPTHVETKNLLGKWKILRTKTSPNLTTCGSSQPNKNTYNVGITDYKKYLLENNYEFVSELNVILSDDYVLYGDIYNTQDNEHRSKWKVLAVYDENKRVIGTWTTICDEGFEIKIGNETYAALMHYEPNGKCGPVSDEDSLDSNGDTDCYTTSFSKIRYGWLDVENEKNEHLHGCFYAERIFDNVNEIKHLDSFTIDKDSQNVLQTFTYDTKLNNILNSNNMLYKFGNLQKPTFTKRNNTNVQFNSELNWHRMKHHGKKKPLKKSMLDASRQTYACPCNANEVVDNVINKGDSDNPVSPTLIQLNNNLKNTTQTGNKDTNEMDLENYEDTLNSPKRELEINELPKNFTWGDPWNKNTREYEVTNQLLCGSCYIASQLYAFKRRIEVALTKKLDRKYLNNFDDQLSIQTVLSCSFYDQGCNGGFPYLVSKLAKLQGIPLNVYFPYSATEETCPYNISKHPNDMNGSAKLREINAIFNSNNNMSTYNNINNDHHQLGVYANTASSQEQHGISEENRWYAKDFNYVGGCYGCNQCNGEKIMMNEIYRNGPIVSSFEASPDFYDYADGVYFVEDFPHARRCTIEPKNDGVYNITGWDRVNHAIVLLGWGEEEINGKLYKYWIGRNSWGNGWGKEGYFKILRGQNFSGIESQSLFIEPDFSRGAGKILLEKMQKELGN

Compound | % Inhibition @ 10 uM
CN1CCN(C(=O)/C(=C/c2cccc(F)c2)NC(=O)c2ccccc2Br)CC1 | 1.02%
Cc1ccccc1C1C(C#N)=C(N)N(c2nc[nH]n2)C2=C1C(=O)CCC2 (stereo not drawn) | -5.63%
O=C(CCC1CCCC1)Nc1ccc2c(c1)OCO2 | 0.843%
O=C(CN(c1ccc(Cl)c(C(F)(F)F)c1)S(=O)(=O)c1ccccc1)NCc1ccccn1 | 14.7%
O=C(NCCCN1CCOCC1)c1cc(-c2cccc(Br)c2)nc2ccccc12 | 3.65%
CCOCCCNCc1c(C(=O)O)n(Cc2ccccc2F)c2ccccc12 | 3.54%
Cc1c2cnn(CC(=O)N3CCc4ccccc4C3)c(=O)c2c(C)n1Cc1ccccc1 | 4.4%
COc1cc(OC)cc(C2=N/C(=C\c3ccc(C(C)C)cc3)C(=O)O2)c1 | 0.26%
Cc1nn(C(C)C(=O)NCc2cccnc2)c(=O)c2c1sc1ccccc12 (stereo not drawn) | -1.03%
CCN(CC)CCN(C)Cc1cccc(Br)c1 | 4.61%
Cc1oc2ccc(O)c(CN3CCOCC3)c2c1C(=O)OCCOc1ccccc1 | -2.99%
O=C(c1cc(S(=O)(=O)N2CCCCC2)c(Cl)cc1Cl)N1CCCCC1 | -2.92%
Cc1cccc(C2C(C#N)=C(N)OC3=C2C(=O)CC(C)(C)C3)c1 (stereo not drawn) | -3.13%
Cc1ccc(-c2onc(C)c2C)cc1S(=O)(=O)N(Cc1ccccc1)C(C)C | 2.01%
CS(=O)(=O)N(CC(=O)N1CCCC1)c1ccc(Cl)c(Cl)c1 | 3.29%
CC(C)C[C@H](NC(=O)c1ccc(-c2ccccn2)s1)C(=O)NCC#N | 5.05%
CN(C)Cc1c(O)ccc2c(=O)c(-c3ccc(Cl)cc3)coc12 | -4.11%
CCN(CC)C1CCS(=O)(=O)C1 (stereo not drawn) | -0.239%
CC(C)(C)c1[nH]nc2c1C(c1ccc(Br)s1)C(C#N)=C(N)O2 (stereo not drawn) | 1.58%
Cc1ccc(C2C3=C(O)CC(C)(C)CC3=Nc3ccccc3N2C(=O)Cc2ccccc2)o1 (stereo not drawn) | 7.12%
CCOc1ccc(C(CN)CC(=O)O)cc1 (stereo not drawn) | -7.7%
CCCOc1ccccc1C(=O)N(Cc1ccc(C)o1)C1CCS(=O)(=O)C1 (stereo not drawn) | -6.5%
CCc1nn2c(=O)c(S(=O)(=O)NCCc3ccccc3)c(C)nc2s1 | -4.47%
CN(CCC#N)S(=O)(=O)c1ccc2ncc(C(=O)O)c(O)c2c1 | -3.35%
N#Cc1cc2c(=O)n3ccccc3nc2n(C2CCCCC2)c1=N | -1.47%

Compound | % Inhibition @ 10 uM
CN(C)c1nc2c(N)ncnc2n1C1OC(CO)C(O)C1O (stereo not drawn) | -2.26%
O=C(O)c1ccccc1S(=O)(=O)CC(=O)N1CCCCC1 | -3.75%
CC(C)NCC(O)COCc1ccccc1 (stereo not drawn) | -0.152% and -6.99%
COc1ccc(/C=C2\SC(N3CCc4ccccc4C3)=NC2=O)c(OC)c1 | -0.386%
CC1CCCC(C)N1CCCNc1ccc2nnc(-c3ccccc3)n2n1 (stereo not drawn) | 3.45%
CCN1C(=O)NC(=O)/C(=C\c2cn(CC(=O)NCc3ccco3)c3ccccc23)C1=O | 2.17%
Cc1cccn2cc(-c3ccccc3)cc12 | -2.8%
Cc1ccccc1NCN1C(=O)C2C3C=CC(C3)C2C1=O (stereo not drawn) | 5.12%
CO/C(O)=C1\C(C)=NC2=C(C(=O)CCC2)C1c1cccc2ccccc12 (stereo not drawn) | -1.03%
OCCNCc1cccc(OCc2ccc(Cl)cc2)c1 | -6.02%
CC1=CC(C)(C)Nc2cc(CN(C)C)c(O)cc21 | 0.878%
CCN(CC)C(=O)NCc1noc2ccccc12 | 3.02%
Cc1ccc(C(=O)N2CCC3(CC2)N=C(c2ccccc2)C(=O)N3)cc1 | 4.91%
Cc1ccsc1CN1CCC(O)CC1 | -2.81%
CC[Si](C)(CC)CCCn1c(=O)c2c(nc(NC3CCCCC3)n2C)n(C)c1=O | -5.08%
CCOCCCNC(=O)CCN1N=C(c2ccccc2)CCC1=O | -5.43%
COc1cccc(OCCCN2CCCCC2)c1 | 1.35%
COc1ccc(Cc2nnc3c4cnn(-c5ccccc5)c4ncn23)cc1OC | 2.95%
CC1=CCC2C(=O)N(c3ccc(C#N)c(Cl)c3)C(=O)C2C1 (stereo not drawn) | -3.04%
Cc1cc(C)c2c(-n3cccc3)c(C(=O)N(C)Cc3ccccc3)sc2n1 | 6.91%
O=[N+]([O-])c1ccccc1S(=O)(=O)N1CCOCC1 | -1.77%
O=C(c1ccc(CS(=O)c2ccc(Cl)cc2)o1)N1CCN(c2ccccn2)CC1 (stereo not drawn) | 3.77%
O=C(NCc1ccccn1)c1ccc2nc(N3CCCCC3)sc2c1 | 1.03%
O=C(Cn1ncc2c3ccccc3n(Cc3cccc(Cl)c3)c2c1=O)N1CCC2(CC1)OCCO2 | -1.58%
CC(C)(C)C(=O)CC(=O)Nc1cc(N)ccc1Cl | 3.42%

Compound | % Inhibition @ 10 uM
O=C(O)CCC(=O)Nc1cccc(Cl)c1 | 2.4%
O=C(CCN1CCCCC1)Nc1ccc(Cl)cc1C(=O)c1ccccc1 | 0.196%
CCCCCn1c(=O)c(C(=O)Nc2ccc(OCC)cc2)c(O)c2ccccc21 | -6.51%
COc1ccc2c(c1)C(=O)Nc1cc(Cl)ccc1N2 | 0.843%
CCOC(=O)c1cc(-c2ccc(C)cc2)n(CCC(=O)Nc2cccnc2)c1C | 3.32%
CCN(CC)c1ncnc2scc(C3COc4ccccc4O3)c12 (stereo not drawn) | 4.75% and 4.44%
Cn1nc(C(=O)N2CCCN(Cc3ccccc3F)C2)c2c1-c1ccccc1S(=O)(=O)C2 | 3.71%
CC(C)(C)C1CCc2c(sc3[nH]c(=S)[nH]c(=O)c23)C1 (stereo not drawn) | 7.19%
CC(c1ccccc1)N1C(=O)NC(NS(=O)(=O)c2ccccc2)(C(F)(F)F)C1=O (stereo not drawn) | 5.12%
Cc1nc2sc(C(=O)Nc3ccc4ccccc4c3)c(N)c2c(C)c1C | 29.1%
CCO/C(O)=C1/C(C)=Nc2nc3ccccc3n2C1c1ccccc1OC (stereo not drawn) | 1.91%
CCCOC(=O)C1=C(C)NC(=O)NC1c1cccc(Br)c1 (stereo not drawn) | 4.38%
O=C(O)COc1ccc(S(=O)(=O)NCCc2ccccc2)cc1 | 0.315%
Cc1ccccc1N1CC(=O)NC1=O | 0.132%
CNc1c(NS(=O)(=O)c2cc(Cl)ccc2OC)c(=O)oc2ccccc12 | -5.05%
Cc1oc2ncnc(N3CCOCC3)c2c1C(=O)NCCN(Cc1ccco1)C1CCCC1 | -1.43%
c1ccc2nc3c(nc2c1)CCc1nonc1-3 | 2%
O=C(NCC1CCCO1)c1cc2nc(-c3cccs3)cc(C(F)(F)Cl)n2n1 (stereo not drawn) | -7.1%
O=C(Nc1cccc(-c2nc3ncccc3o2)c1)c1ccccc1 | 1.34%
O=C(c1nn2c(c1Br)NC(c1ccccc1)CC2C(F)(F)F)N1CCN2CCCC2C1 (stereo not drawn) | 7.5%
Cc1cc(NC(=O)CSc2nc3c(c(-c4cccnc4)c2C#N)CCC3)no1 | -7.75%
CCOC(=O)C1=C(CN(CCOC)Cc2ccco2)NC(=O)NC1c1cccs1 (stereo not drawn) | 3.85%
CCC[C@@H](/C=C/S(=O)(=O)c1ccccc1)NC(=O)[C@H](Cc1ccccc1)NC(=O)N1CCC(N2CCOCC2)CC1 | -3.04%
O=C(Cn1nc(-c2ccc(Cl)cc2)ccc1=O)NCc1cccnc1 | -5.43%
COc1ccc(C(=O)Nc2ccccc2C(=O)NCc2cccnc2)cc1 | 1.27%

Compound | % Inhibition @ 10 uM
CCC(C)Sc1nc(O)c2cnn(-c3ccc(F)cc3)c2n1 (stereo not drawn) | -0.363%
Cc1ccccc1C(=O)N1CCN(c2ccc(F)cc2)CC1 | 0.526%
O=c1oc2ccc3ccccc3c2cc1-c1csc(NCc2ccc(F)cc2)n1 | 2.4%
c1ccc(-c2ccc(CN3CCN(c4ncccn4)CC3)cc2)cc1 | 1.55%
O=C(O)c1cc2c(s1)CS(=O)(=O)C2 | 1.42%
Cc1c[nH]c2cccc(OCC(O)CNC(C)(C)C)c12 (stereo not drawn) | 0.00178%
CC1(C)CC2=NC3=C(C(=O)CC(C)(C)C3)C(c3cc(Cl)c(O)c(Cl)c3)C2=C(O)C1 (stereo not drawn) | 13.2%
CC(C)C[C@H](NC(=O)c1ccc(NC(=O)OCCCc2cccnc2)cc1)C(=O)NCC#N | -0.778%
O=C(c1cc(-c2ccc(Cl)cc2)n[nH]1)N1CCCCCC1 | -2.74%
CCCCN(CCCC)C(=O)c1ccc(C/N=c2\c(O)c(O)\c2=N/C2CCCC2)cc1 | 3.24%
C/N=C1/S/C(=C\c2ccc(N3Cc4ccccc4C3)cc2)C(=O)N1C | -5.19%
O=C(Nc1cc(Cl)c(Cl)cc1Cl)c1ccc(Br)cc1 | 0.526%
CC[C@H](NC(=O)[C@H](Cc1c(F)cc(F)cc1F)NC(=O)c1ccc(-c2ccccc2Cl)cc1)C(=O)c1nc2ccccc2o1 | -1.82%
CCN(CC)S(=O)(=O)c1cccc(C(=O)Nc2ccc(Br)cc2)c1 | -2.55%
Nc1ccc(Cc2ccc(N)c(Cl)c2)cc1Cl | 1.64%
CCc1nc2ccc(C(=O)N(C)Cc3ccccc3)cc2nc1CC | 3.1%
COc1cc2sc3c(O)nc4ccccc4c3c2cc1OC | 4.42%
COc1ccc(Cl)cc1NC(=O)CN(Cc1ccc(Cl)cc1)S(=O)(=O)c1ccccc1 | -2.92%
Cc1nc2ccccc2n1CC(O)Cn1c(C(F)(F)F)nc2ccccc21 (stereo not drawn) | 0.163%
O=C(CN1CCCCCC1)N1CCn2c3c(c4cc(C5CCCCC5)ccc42)CCCC31 (stereo not drawn) | 0.716%
COc1cc(OC)cc(C(=O)NCC(C)C)c1 | 4.42%
CCc1c2ccc(C)n2cc[n+]1CC(=O)c1ccccc1 | -2.07%
Oc1nc(NCc2ccco2)nnc1Cc1ccccc1Cl | -3.01%
Cc1ccc2oc(=O)c3cc(C(=O)Nc4cccnc4Cl)sc3c2c1 | -0.0593%
